Source: PMC4336329 (PLoS ONE, 2015)
The campaign covered roughly 310,000 compounds. About 2,200 (0.71%) showed an effect of 50% or more. The effect is printed as a negative number. The list shows a part of the results.

Each molecule was assayed against human ether-à-go-go-related gene (hERG) potassium channel (human, UniProt Q12809) (assay: primary screen, population patch clamp on CHO cells stably expressing hERG).
Chain of human ether-à-go-go-related gene (hERG) potassium channel (Q12809 whole entry, looked up): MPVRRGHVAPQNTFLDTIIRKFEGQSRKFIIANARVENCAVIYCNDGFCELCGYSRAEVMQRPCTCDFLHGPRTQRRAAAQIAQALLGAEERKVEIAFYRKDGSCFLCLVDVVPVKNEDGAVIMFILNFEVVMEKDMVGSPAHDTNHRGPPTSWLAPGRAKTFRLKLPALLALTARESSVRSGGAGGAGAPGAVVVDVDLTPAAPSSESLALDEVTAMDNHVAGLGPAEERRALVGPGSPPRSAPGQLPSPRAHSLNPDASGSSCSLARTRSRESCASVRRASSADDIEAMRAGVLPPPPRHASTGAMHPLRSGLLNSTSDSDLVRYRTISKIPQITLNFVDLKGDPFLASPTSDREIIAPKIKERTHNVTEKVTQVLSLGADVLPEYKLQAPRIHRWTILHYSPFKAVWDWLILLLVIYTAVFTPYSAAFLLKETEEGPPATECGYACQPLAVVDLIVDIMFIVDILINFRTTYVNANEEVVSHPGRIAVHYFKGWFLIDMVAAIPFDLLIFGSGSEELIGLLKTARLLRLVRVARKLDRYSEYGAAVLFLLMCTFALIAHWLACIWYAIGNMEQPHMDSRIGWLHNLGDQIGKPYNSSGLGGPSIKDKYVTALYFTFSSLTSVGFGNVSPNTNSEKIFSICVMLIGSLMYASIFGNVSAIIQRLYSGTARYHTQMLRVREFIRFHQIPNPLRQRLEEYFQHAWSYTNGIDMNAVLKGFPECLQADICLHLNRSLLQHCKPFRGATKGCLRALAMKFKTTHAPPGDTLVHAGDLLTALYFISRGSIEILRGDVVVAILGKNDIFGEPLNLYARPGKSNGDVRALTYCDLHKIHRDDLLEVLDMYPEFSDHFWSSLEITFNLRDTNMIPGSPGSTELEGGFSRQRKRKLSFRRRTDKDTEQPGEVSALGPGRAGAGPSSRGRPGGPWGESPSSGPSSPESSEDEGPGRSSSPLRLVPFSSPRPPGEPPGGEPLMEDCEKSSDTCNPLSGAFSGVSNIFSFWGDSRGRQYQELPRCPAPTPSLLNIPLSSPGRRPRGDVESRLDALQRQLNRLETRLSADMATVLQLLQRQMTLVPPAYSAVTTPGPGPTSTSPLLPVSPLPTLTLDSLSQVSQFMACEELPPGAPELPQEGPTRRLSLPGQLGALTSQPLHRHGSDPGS

| Compound | hERG current change (%, negative = inhibition) at 1uM [%] |
| --- | --- |
| CCNC(=O)Cc1ccc(Br)cc1 | 10.7 |
| OCCNCC(O)CN1c2ccccc2Sc2ccccc21 (stereo not shown) | 7.67 |
| CCOC(=O)CNC(=O)CSc1nnc(-c2ccco2)n1Cc1ccco1 | 6.74 |
| Cc1ccc(N2CCN(C(=S)c3ccc(-c4ccccc4[N+](=O)[O-])o3)CC2)cc1 | 14.7 |
| CCC1=C(OC(=O)N(CC)CC)N2C(=O)OC(=NCCc3c[nH]c4ccccc34)[C@]2(Cc2ccccc2)[C@H]2C1=CC[C@H]1C(=O)N(c3ccccc3)C(=O)[C@H]12 | 9.01 |
| NC(=O)c1cccnc1OCC(F)(F)F | 1.58 |
| Cc1nc(NC(=O)COC(=O)CCS(=O)(=O)c2ccccc2Cl)c(Cl)cc1Cl | 11.3 |
| CC(NC(=O)c1ccc2c(c1)OCO2)c1cccc(C(F)(F)F)c1 (stereo not shown) | 4.04 |
| CC(Sc1nnc(-c2cc3ccccc3o2)n1-c1ccccc1)C(=O)O (stereo not shown) | 13.1 |
| Cc1ccc(NC(=O)c2ccc3nsnc3c2)c(Cl)c1 | 9.66 |
| CCOc1ccc(NC(=O)CSc2nc3ccccc3nc2N2CCOCC2)cc1 | -3.83 |
| Nc1c(Cl)cc(Cl)cc1C(=O)OCC(=O)N1CCCC1 | -10.3 |
| CC1CN(CCc2ccccc2)c2nc3c(c(=O)n(C)c(=O)n3C)n2C1 (stereo not shown) | -7.41 |
| CN(C1CCS(=O)(=O)C1)S(=O)(=O)c1ccc2ccccc2c1 (stereo not shown) | -6.73 |
| COc1ccc(CN2CCNC(=O)C2CC(=O)NC2CCCCCCC2)cc1OC (stereo not shown) | 12.3 |
| CCN(CC)c1ccc(NC(=O)Nc2ccccc2C(F)(F)F)cc1 | 10.8 |
| COCc1ccc(CN2CCCC(CO)(Cc3ccccc3)C2)o1 (stereo not shown) | 9.3 |
| COC(=O)[C@H](CC(C)C)NC(=O)Nc1ccc2c(c1)OCCO2 | 6.42 |
| CCOC(=O)c1[nH]c(C)c(C(=O)N(C)Cc2ccccc2)c1C | 3.82 |
| COc1cccc(NC(=S)N(Cc2ccc(C(=O)O)cc2)Cc2ccc(OC)c(OC)c2)c1 | 9.03 |
| CC1CCCN(c2nc(NCc3ccco3)nc(N)c2[N+](=O)[O-])C1 (stereo not shown) | 3.98 |
| CCOc1nc2ccccc2cc1/C=C/C(=O)O | 10.5 |
| CCC(NC(=O)CCc1ccccc1)c1ccccc1 (stereo not shown) | 2.38 |
| CC(c1nnnn1C1CCCCC1)N(Cc1ccccc1)Cc1cccnc1 (stereo not shown) | -7.88 |
| O=C(Nc1ccc(N2CCCC2)cc1)c1cc([N+](=O)[O-])ccc1N1CCOCC1 | 6.47 |
| CCOC(=S)SCC(=O)Nc1ncc(C)s1 | 15.1 |
| COc1ccccc1C(=O)N(C1=NC(C)CS1)c1ccc(Cl)cc1 (stereo not shown) | 8.39 |
| COc1c2occc2c(OC)c2c(=O)cc(C)oc12 | -3.93 |

| Compound | hERG current change (%, negative = inhibition) at 1uM [%] |
| --- | --- |
| O=S1(=O)CCOCCN1Cc1ccccc1 | 10.2 |
| CCN1CCSc2ccc(C(=O)NCc3cccc(F)c3)cc21 | 15.9 |
| CCn1c(CSc2n[nH]c(N)n2)nc2cc(C(=O)O)ccc21 | 11.3 |
| O=C(c1cc2ccccc2oc1=O)N(Cc1cccs1)Cc1ccccc1Cl | 2.42 |
| CCCCOC(=O)Cn1c(=N)n(CCC)c2ccccc21.Cl | -4.92 |
| CCOC(=O)C1CCN(C2CC(=O)N(c3ccc(OCC)cc3)C2=O)CC1 (stereo not shown) | 2.22 |
| COc1cc(NC(=O)c2cc(-c3ccco3)on2)cc(OC)c1OC | 6.43 |
| COc1ccc(CC2(C)OC(c3ccc(C)c([N+](=O)[O-])c3)=NN2C(C)=O)cc1 (stereo not shown) | 12.8 |
| CC1(C)CC(=O)C2=C(C1)OC(N)=C([N+](=O)[O-])C2c1cccs1 (stereo not shown) | 11.4 |
| COC(=O)CSC1=C(C#N)C(c2ccc(C)cc2)C2=C(CCCC2=O)N1 (stereo not shown) | -2.79 |
| Cc1nc2nc(C)c(CCC(=O)NCCCN3CCN(c4cccc(Cl)c4)CC3)c(C)n2n1 | 14.8 |
| COc1ccc(-c2ccc([C@H]3[C@H]4C=CC[C@@H](C)[C@@H]4C(=O)N3Cc3ccccc3)c(F)c2)cc1C | 12.4 |
| O=C(N/N=C/c1cccc(F)c1)c1c(O)c2c([nH]c1=O)CCCC2 | -2.39 |
| CCOC(=O)N1CCN(C(=O)c2ccc(C#CC3(O)CCCCC3)cc2)CC1 | 1.27 |
| CN(C)S(=O)(=O)c1ccc2oc(SCC(=O)c3c(N)n(C4CC4)c(=O)[nH]c3=O)nc2c1 | 13 |
| CC[C@]1(O)C[C@@H]2CN(CCc3c([nH]c4ccccc34)[C@@](C(=O)OC)(c3cc4c(cc3OC)N(C=O)[C@H]3[C@@](O)(C(=O)OC)[C@H](OC(C)=O)[C@]5(CC)C=CCN6CC[C@]43[C@@H]65)C2)C1.O=S(=O)(O)O | 16.1 |
| O=C(COC(=O)CCC1CCCCC1)Nc1ccc(OC(F)F)cc1 | 8.65 |
| CCN(Cc1cc2cc(C)ccc2[nH]c1=O)S(=O)(=O)c1ccccc1 | 4.31 |
| O=S(=O)(c1ccc(F)cc1)N1CCN(c2ccccc2)CC1 | 3.7 |
| CCN1CCC(N2CCN(c3ccc(F)cc3)CC2)CC1 | 10.6 |
| Cc1ccc(S(=O)(=O)CC(=O)c2ccccc2)cc1 | 4.09 |
| CCCc1cc(=O)[nH]c(SCc2cc(Cl)ccc2OC(F)F)n1 | -6.63 |
| COc1ccc(C2c3sc(=O)[nH]c3SC3C4CCC(C4)C23)cc1 (stereo not shown) | 0.607 |
| Cc1cc(NC(=O)c2c(F)c(F)c(F)c(F)c2F)no1 | -8.09 |
| O=C(CSc1cccc2cccnc12)N/N=C/c1ccc(F)cc1 | 8.21 |
| CCc1ccc(-c2nn(Cc3ccccc3)cc2C(=O)NCC2CCCO2)cc1 (stereo not shown) | 8.4 |
| O=C(NCCO)C1(c2ccc(Cl)cc2)CCCC1 | 6.57 |
